Experimental data from article PMC4336329 (PLoS ONE, 2015).
The whole screen tested about 310,000 compounds, of which about 14,000 (4.5%) showed an effect of 50% or more. The effect is printed as a negative number. This is one part of the list.

biological target: human ether-à-go-go-related gene (hERG) potassium channel (human, UniProt Q12809); test: primary screen, population patch clamp on CHO cells stably expressing hERG
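Note: peak tail current of the secondary pulse compared with the same well before compound.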

Chain of human ether-à-go-go-related gene (hERG) potassium channel (Q12809 whole entry, looked up): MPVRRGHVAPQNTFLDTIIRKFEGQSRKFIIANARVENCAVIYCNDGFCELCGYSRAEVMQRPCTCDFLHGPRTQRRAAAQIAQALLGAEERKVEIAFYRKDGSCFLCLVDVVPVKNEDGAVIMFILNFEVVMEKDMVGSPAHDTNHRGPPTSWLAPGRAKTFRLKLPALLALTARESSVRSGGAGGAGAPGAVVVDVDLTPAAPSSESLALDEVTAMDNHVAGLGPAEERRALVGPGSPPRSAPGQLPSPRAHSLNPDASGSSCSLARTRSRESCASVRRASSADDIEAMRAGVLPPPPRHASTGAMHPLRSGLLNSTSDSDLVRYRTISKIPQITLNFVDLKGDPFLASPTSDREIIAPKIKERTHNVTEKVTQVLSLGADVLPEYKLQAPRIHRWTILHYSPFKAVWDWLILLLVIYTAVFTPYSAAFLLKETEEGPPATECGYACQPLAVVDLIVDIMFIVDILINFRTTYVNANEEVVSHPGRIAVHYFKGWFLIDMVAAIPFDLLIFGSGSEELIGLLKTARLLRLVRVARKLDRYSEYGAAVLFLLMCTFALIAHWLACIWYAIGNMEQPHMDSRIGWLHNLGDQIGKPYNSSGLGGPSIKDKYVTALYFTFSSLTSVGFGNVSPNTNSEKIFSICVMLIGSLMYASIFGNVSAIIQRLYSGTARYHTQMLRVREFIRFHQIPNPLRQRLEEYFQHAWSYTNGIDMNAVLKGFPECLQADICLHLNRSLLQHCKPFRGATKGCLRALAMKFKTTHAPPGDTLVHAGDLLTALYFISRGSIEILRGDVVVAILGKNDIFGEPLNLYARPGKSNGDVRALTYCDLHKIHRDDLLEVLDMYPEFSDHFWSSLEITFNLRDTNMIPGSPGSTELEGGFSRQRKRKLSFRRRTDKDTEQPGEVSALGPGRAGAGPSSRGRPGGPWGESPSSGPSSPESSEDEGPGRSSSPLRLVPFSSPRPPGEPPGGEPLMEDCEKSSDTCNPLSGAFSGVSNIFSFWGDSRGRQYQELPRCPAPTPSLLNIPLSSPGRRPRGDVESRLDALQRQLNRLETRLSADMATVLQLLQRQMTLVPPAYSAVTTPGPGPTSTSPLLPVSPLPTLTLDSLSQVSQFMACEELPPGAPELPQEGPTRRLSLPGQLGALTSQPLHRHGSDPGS

| Compound | hERG current change (%, negative = inhibition) at 10uM [%] |
| --- | --- |
| CCCCn1c2c(c(=N)c3ccccc31)CCC2.I | -50.3 |
| COc1ccc(C2CC(c3cccs3)=NN2S(=O)(=O)c2ccc(C)cc2)cc1 (centres unmarked) | 6.02 |
| Cc1cc(C)c2c(n1)SCC(=O)N2CC(=O)Nc1ccc(Br)c(C)c1 | -29.7 |
| Cc1nc(CC(=O)Nc2nc(-c3ccccc3)cs2)cs1 | -8.56 |
| CCCCCC/C(C=O)=C\c1ccccc1 | 24.4 |
| O=C1CCC(C(=O)N2CCC(O)CC2)CN1CCc1ccc(Cl)cc1 (centres unmarked) | 1.38 |
| CC(C)(C)c1ccc(C(=O)NCCCNC(=O)c2ccco2)cc1 | -10.8 |
| Nc1[nH]c(=S)[nH]c(=O)c1-c1ccccc1 | 14.5 |
| O=C(N/N=C(\c1ccccc1)c1cccnc1)c1cccc(F)c1 | -61.5 |
| Cc1ccc(C)c(OCCC(=O)NNC(=O)c2cc(C)oc2C)c1 | -12.1 |
| CN(C)c1nccc(NCc2ccccc2)c1C#N | -22.1 |
| COc1ccc(CC(=O)Nc2cc(C)c3c(=O)oc4ccccc4c3n2)cc1 | -4.96 |
| Cc1ccc(S(=O)(=O)N2CCC(C(=O)N[C@H](C(=O)N3CCN(C)CC3)C(C)C)CC2)cc1 | 10.8 |
| COc1cc(NC(=O)N2CCOCC2)cc(OC)c1 | 2.6 |
| CCN(CC)N=Nc1ccc(S(=O)(=O)N2CCSC2C(=O)[O-])cc1.[K+] (centres unmarked) | 28.2 |
| CCn1ccc(C(=O)Nc2ccc(N(C)C(C)=O)cc2)n1 | 14 |
| CNc1cc(C)nc(N2CCOCC2)n1 | 19.1 |
| O=C(NCc1ccccc1Cl)C1=CC=CN2CCS(=O)(=O)N=C12 | -11.1 |
| CC1(C)Cc2c(sc(NC(=O)COc3ccc(Cl)cc3)c2C(N)=O)C(C)(C)N1 | 0.951 |
| CCc1ccc2oc(=O)cc(CN3CCC(C)CC3)c2c1 | -2.21 |
| CCOC(=O)N/N=C(\CCC(=O)O)c1cccs1 | 14.5 |
| Nc1cc(Cl)c2nonc2c1[N+](=O)[O-] | -8.96 |
| COC(=O)c1c(NC(=O)/C=C/c2ccc3c(c2)OCO3)sc(C)c1C | 4.75 |

| Compound | hERG current change (%, negative = inhibition) at 10uM [%] |
| --- | --- |
| CCC(=O)NC1(C(F)(F)F)C(=O)NC(C)=C1C#N (centres unmarked) | 4.2 |
| CCc1nnc(NC(=O)CSc2nnc(CNc3ccc(OC)cc3)n2C)s1 | 13.4 |
| COc1cc(/C=C2/C(=N)N3C=CSC3=NC2=O)ccc1OCCCOc1c(C)cccc1C | -0.849 |
| CC(=O)c1c(C)[nH]c(C(=O)OCC(=O)Nc2cc(S(=O)(=O)N3CCCCC3)ccc2C)c1C | 3.32 |
| CC(=O)c1c(Cl)nc2cccc3c2c1-c1ccccc1C3=O | 4.8 |
| Cc1cc(-c2ccc(C(C)C)c(S(=O)(=O)N3CC(=O)Nc4ccccc43)c2)on1 | -1.21 |
| CCC(C)[C@H](NC(=O)N1CC(=O)Nc2ccccc21)C(=O)N[C@H](C(=O)O)c1ccccc1 (some centres unmarked) | 7.19 |
| Cc1cccc(/C(N)=N/OC(=O)c2ccco2)c1 | -12.1 |
| CCN(CC)CCCN=Cc1c(O)n(-c2c(C)cccc2C)c(=O)c2ccccc12 | -34.2 |
| Cc1cc(N2CCN(S(=O)(=O)Cc3ccccc3)CC2)n2ncnc2n1 | -46.1 |
| O=C(NC(NC(=S)Nc1ccccc1C(=O)O)C(Cl)(Cl)Cl)c1ccco1 (centres unmarked) | 6.85 |
| CCC(C)C1Nc2ccc(C(=O)NCCc3ccc(OC)c(OC)c3)cc2NC1=O (centres unmarked) | 20.4 |
| CNc1cnn(-c2ccc(C)cc2)c(=O)c1Cl | 13.2 |
| COc1ccc(OCC(=O)NCC(c2cccs2)N2CCOCC2)cc1 (centres unmarked) | 4.86 |
| N#CCCN(C(=O)CN1CCN(S(=O)(=O)c2ccc3c(c2)OCCO3)CC1)c1ccc(F)cc1 | -8.83 |
| Cc1csc(NC(=O)c2ccc(COc3ccccc3)o2)n1 | -17.7 |
| O=C1CC(c2ccccc2)CC(O)=C1C=Nc1ccccc1Cl (centres unmarked) | 8.85 |
| CCn1c(COc2ccccc2C)nnc1SCC(=O)NC1CCCC1 | -2.89 |
| CCC1=C(OC(=O)N(CC)CC)N2C(=O)OC(=NCC3CC3)[C@]2(C)[C@H]2C1=CC[C@H]1C(=O)NC(=O)[C@H]12 | 3.99 |
| O=C(NCc1ccco1)C(=O)NCC1OCCN1S(=O)(=O)c1ccc(Br)cc1 (centres unmarked) | -36.6 |
| CC(=O)Nc1ccc(S(=O)(=O)Nc2ccc3[nH]c(=O)[nH]c3c2)cc1 | 24.9 |
| Cc1ccc(C)c(NC(=S)N2CCC(NC(=O)c3ccco3)CC2)c1 | -8.35 |
| CN(C)CCNC(=O)C(=O)c1c(-c2ccccc2)cc2ccccn12 | 1.93 |

| Compound | hERG current change (%, negative = inhibition) at 10uM [%] |
| --- | --- |
| CC(=O)Nc1ccc(Sc2ccccc2C(=O)O)cn1 | 21.4 |
| COC(=O)NC1(C(F)(F)F)C(=O)Nc2c1c(=O)n(C)c(=O)n2C (centres unmarked) | 31.3 |
| O=C(NN=C1c2ccccc2-c2ccccc21)c1ccccc1 | -10.6 |
| CCN(Cc1cc2ccccc2[nH]c1=O)S(=O)(=O)c1ccccc1 | -6.48 |
| O=C(COc1ccc2c(-c3ccccc3)cc(=O)oc2c1)N[C@H](Cc1c[nH]c2ccccc12)C(=O)O | -3.06 |
| NC(CO)C(O)c1ccc([N+](=O)[O-])cc1 (centres unmarked) | 5.02 |
| Clc1ccccc1CSc1nnc(-c2cccnc2)n1Cc1ccco1 | -43.1 |
| Cc1cc(Nc2c(C)n(C)n(-c3ccccc3)c2=O)n2c(nc3cc(F)c(F)cc32)c1C#N | 19.2 |
| COc1ccc(CCNC(=O)CN(C)S(=O)(=O)c2ccc(OC)cc2)cc1 | -11.4 |
| CN(C)CCNC(=O)C(c1ccccc1)c1ccccc1 | -28.3 |
| Cn1c2ccccc2n2c(=O)c(=O)n(CC(=O)c3ccc(Cl)cc3)nc12 | -0.966 |
| Cc1cccc(-c2nc(CN3CCN(Cc4cccc(F)c4)CC3)c(C)o2)c1 | -47 |
| COc1cccc(C(=O)COc2cccc(NC(=O)c3ccco3)c2)c1 | -44 |
| O=C1N=C(N2CCCCC2)S/C1=C\c1ccc(Cl)cc1 | 9.15 |
| Cc1ccc(S(=O)(=O)Oc2ccc(/C=N/NC(=O)c3nn(C)cc3[N+](=O)[O-])cc2)cc1 | -1.82 |
| C=CCn1c(=O)/c(=C/c2ccc(O)cc2)s/c1=C(/C#N)c1nnc2n1CCCCC2 | -16.6 |
| COc1cccc(S(=O)(=O)Nc2ccc3c(c2)OCCO3)c1 | -6.43 |
| O=C(c1ccco1)N1CCN(C(=O)C23CC4CC(CC(C4)C2)C3)CC1 | 3.07 |
| Cn1c(SCC(=O)NNC(=O)Cc2ccccc2)nnc1-c1ccc(Cl)cc1 | -7.07 |
| Cc1cc(OCC(=O)OCC(=O)N2CCc3ccccc3C2)ccc1Cl | 15.1 |
| CCN(CC)C(=O)CN1CCN(c2ccccc2F)CC1.Cl | 12.5 |
| Cc1ccc(S(=O)(=O)N(C)C)cc1NC(=O)COC(=O)/C=C/c1ccc2ccccc2n1 | 3.51 |
| COc1ccc(N(CC(=O)NCCc2cccc(C)c2)S(=O)(=O)c2c(C)noc2C)cc1 | 11.5 |

| Compound | hERG current change (%, negative = inhibition) at 10uM [%] |
| --- | --- |
| O=C(NNC(=O)c1cc(Cl)nc2ccccc12)c1ccccc1F | 16.6 |
| CCNC(=S)N(Cc1cc2cc(C)cc(C)c2[nH]c1=O)C1CCCC1 | -7.52 |
| C#CCN(C)Cc1ccccc1.Cl | 0.852 |
| CCCCN(CC)CCCNC(=O)c1ccc(CS(=O)(=O)c2c(Cl)cccc2Cl)o1 | -55.4 |
| Cc1ccccc1Cn1cc(NC(=O)c2cc3nc(-c4ccco4)cc(C(F)(F)F)n3n2)cn1 | 7.92 |
| N=c1c(C(=O)NC2CCCC2)cc2c(=O)n3ccccc3nc2n1C1CCCCC1 | -79 |
| Cc1ccc(S(=O)(=O)NC(C(=O)Oc2ccc3c(C)c(Cl)c(=O)oc3c2)c2ccccc2)cc1 (centres unmarked) | 8.6 |
| Cc1nn(-c2ccccc2)c(C)c1/C=N/NC(=O)c1ccc(F)cc1 | -2.21 |
| O/N=C/c1ccnc(SCc2ccccc2)n1 | -12.1 |
| COc1ccc(N2C(=O)c3ccccc3C2=O)cc1 | 4.96 |
| CC(C)Oc1nc(-c2ccc(Cl)cc2)nc2ccccc12 | 15.4 |
| Cc1ccc(NCc2ccc(O)c3ncccc23)cc1 | 21.1 |
| CCOc1ccc(NC(=O)CNc2ccc(C)cc2Cl)cc1 | 7.33 |
| O=C(CSc1nc2ccccc2nc1N1CCCC1)Nc1ccc(F)cc1 | 11.1 |
| Cc1ccccc1NC(=O)COc1ccccc1C | 13.8 |
| CCc1nc(SCC(=O)Nc2cc(C)on2)n[nH]1 | -1.95 |
| O=C(Cn1cc(C(F)(F)F)ccc1=O)Nc1ccccc1 | 17.2 |
| CCNC(=O)C(=O)Nc1ccc2c(c1)N(S(=O)(=O)c1cccs1)CCC2 | -0.863 |
| O=S(=O)(NCC(Nc1ccc(Cl)cc1)c1ccccc1)c1ccc(Cl)cc1 (centres unmarked) | 7 |
| COC(=O)C1=C(N)c2c(F)cccc2C1(C#N)c1ccccc1 (centres unmarked) | -9.3 |
